Over roughly 33,000 sequences, “E-score (-0.5 to 0.5)” has its median near -0.021; the highest 2% begin near 0.32. The list shows a part of the results.
The sequences below were run against T1, Zap1 (UniProt P47043) (assay: PBM E-score (8-mer binding enrichment) (E-score (-0.5 to 0.5)); higher = stronger / more preferred TF binding; most listed sequences are background and not binding sites). Details: protein concentration: 200 nM; construct: GST-full length.
T1 sequence: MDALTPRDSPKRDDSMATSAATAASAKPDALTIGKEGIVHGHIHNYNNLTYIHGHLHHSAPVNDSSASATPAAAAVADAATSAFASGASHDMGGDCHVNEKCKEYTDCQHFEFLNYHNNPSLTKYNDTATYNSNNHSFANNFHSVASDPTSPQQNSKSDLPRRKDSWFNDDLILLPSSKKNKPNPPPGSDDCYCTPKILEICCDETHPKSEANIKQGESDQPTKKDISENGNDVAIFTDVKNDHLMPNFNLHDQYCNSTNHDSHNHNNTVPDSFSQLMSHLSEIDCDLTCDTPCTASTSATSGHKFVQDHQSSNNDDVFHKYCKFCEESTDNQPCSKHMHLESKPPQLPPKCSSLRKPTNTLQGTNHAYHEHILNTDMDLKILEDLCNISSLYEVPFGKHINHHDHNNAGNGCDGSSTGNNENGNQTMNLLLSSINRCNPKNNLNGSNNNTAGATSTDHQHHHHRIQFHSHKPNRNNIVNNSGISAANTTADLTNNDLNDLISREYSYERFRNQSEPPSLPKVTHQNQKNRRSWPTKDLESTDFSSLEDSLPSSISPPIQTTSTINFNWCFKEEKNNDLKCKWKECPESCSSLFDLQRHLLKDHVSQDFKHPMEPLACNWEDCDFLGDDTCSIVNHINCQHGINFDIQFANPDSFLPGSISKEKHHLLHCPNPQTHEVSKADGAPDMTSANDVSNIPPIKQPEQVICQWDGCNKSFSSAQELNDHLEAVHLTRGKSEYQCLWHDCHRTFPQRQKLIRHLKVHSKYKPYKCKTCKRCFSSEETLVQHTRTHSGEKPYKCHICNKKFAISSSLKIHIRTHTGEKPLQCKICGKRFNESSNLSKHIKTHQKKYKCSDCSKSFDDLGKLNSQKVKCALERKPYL
Summary of the method: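 GST-tagged yeast TFs (full-length or DNA-binding domain) were made by PURExpress in vitro transcription/translation and applied at about 100-200 nM to universal all-10-mer Agilent arrays. The arrays were made double-stranded by primer extension, on fresh or once-stripped slides. Bound protein was detected with fluorescent anti-GST, and scans were normalised with masliner. Each ungapped eight-base word, pooled with its reverse complement, received an E-score (modified Wilcoxon-Mann-Whitney statistic) from the Universal PBM Analysis Suite.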

Point of comparison: CTCAAGTC, “PBM E-score” value -0.0858. Against it:
- AGAAAATG — higher, 0.0201
- AAGAAAGG — higher, 0.0397
- AGCTTCAG — lower, -0.165
- GCTGAGCC — lower, -0.23
- ACAGGGAT — higher, -0.0641
- ATCGAAGC — lower, -0.248
- ACCAACCA — higher, 0.17
- CGTCGTTC — lower, -0.166
- CAGGGACC — lower, -0.141
- AGCCCCAT — higher, -0.0517
- CCATGGGA — higher, 0.0786
- CCTGGGTA — higher, 0.197
- CATGAGAA — higher, 0.133
- CTTCCGTC — higher, -0.0683
- CCGGGGCA — lower, -0.255
- AAAACCCT — higher, 0.362
- CCATTCAC — higher, 0.0919
- CCATCTAG — higher, -0.0205
- CGTTTACA — higher, -0.0671
- GATACTGA — higher, -0.017
- GCTGCTAC — lower, -0.183
- GGGCCGAC — higher, -0.0668
- CCCATTAC — higher, 0.13
- ACTCGGCG — lower, -0.258
- CTTGCTAA — higher, -0.0487
- ACCGTATG — higher, -0.00664
- AGTGAAGG — lower, -0.0963
- ACCAAGAT — higher, 0.126
- CCACCAAA — higher, 0.133
- AATGTGGA — lower, -0.175
- CATTCAGG — lower, -0.11
- ACAGGCAA — lower, -0.118
- GACGGGTA — higher, 0.0159
- CATAGGGC — higher, -0.0199
- ATATGATC — higher, 0.128
- AGAGCGGC — higher, -0.0814
- ATTGCCAA — lower, -0.0916
- GTGAAGCA — lower, -0.181
- GCCAAAGA — lower, -0.126
- CGGTGTGA — higher, 0.0819
- GAATGCGC — lower, -0.262
- ATGACTAA — lower, -0.144
- CCTGGGGA — lower, -0.183
- ACCGATGC — higher, -0.0856
- CAAGAGCG — lower, -0.133
- GTAGACAC — higher, -0.0245
- TCAAACCA — higher, 0.201
- CACTCTAC — higher, 0.177
- ACCAGCAG — lower, -0.089
- ACATTCAT — lower, -0.131
- AGCCAGGA — lower, -0.272
- CGGTGGTC — higher, 0.205
- ATCGGGCA — lower, -0.199
- GGCTCACC — lower, -0.292
- TGCAACAA — higher, 0.151
- GCGGAGCC — lower, -0.0954
- GTATTAGA — higher, 0.196
- ATAAGATG — higher, 0.0619
- CATATGTC — lower, -0.234
- CATGCTAG — lower, -0.191
- ATACCACC — higher, 0.183
- CTCTATCC — lower, -0.129
- GGTTCTAC — higher, -0.046
- CTTGCTCC — lower, -0.161
- GTCGACTA — higher, 0.0682
- ACTTGGGA — higher, -0.0501
- AATTCAAG — higher, 1e-05
- GCTCAAAA — higher, 0.132
- CTCATGCA — lower, -0.0931
- TTATTAAA — higher, 0.297
- GGCATGCC — higher, 0.0452
- ATTTTCTC — higher, 0.00271
- AGTAGCCA — lower, -0.0878
- AAAGACCT — higher, 0.136
- AGATTCGA — higher, 0.0773
- GATTGATA — higher, 0.144
- CTGATAGA — higher, 0.00527
- CATGCTGC — lower, -0.284
- CCCTTATA — higher, 0.15
- AAGGAAAG — lower, -0.165
- AACGGGGC — higher, -0.0823
- AACGTCAA — lower, -0.0955
- CTTGTGAA — higher, -0.039
- AAACGCCA — lower, -0.0933
- AATATGGT — higher, 0.255
- ATAGGACC — higher, 0.149
- AAGGTGCA — higher, 0.0139
- CGTAGTCC — lower, -0.256
- GATGGGCA — lower, -0.132
- CAAGTCAA — higher, 0.0562
- ACAGTCCA — higher, 0.0812
- TAATGCTA — higher, 0.141
- GGTTCCTA — higher, 0.132
- ACAAGAGG — higher, 0.107
- CAACCATG — higher, 0.0992
- AGCTTGAG — lower, -0.205
- CCGCGGCA — higher, -0.00024
- GTGGCTCA — lower, -0.184
- ATCTCCAG — higher, -0.0556
- AAAATCTG — higher, 0.195
- TAGTAGCA — higher, -0.0494
- CGCTTCCC — lower, -0.231
- ATCTGTGA — higher, -0.0286
- CGTATGAG — lower, -0.24
- AAAGCACC — higher, 0.0837
- AGTTCCAG — higher, -0.0153
- AGAGTTCG — higher, 0.0249
- GTGACGTA — lower, -0.104
- CGTAAGGA — lower, -0.0863
- ATCGATGA — higher, 0.055
- CCTCTCCC — lower, -0.118
- CCAGTCGC — lower, -0.137
- ACCTACGA — higher, 0.0748
- AGTGCCGC — lower, -0.241
- CAGGCCTA — higher, -0.0344
- CCTCAGAA — higher, -0.0154
- CACTGATA — lower, -0.0881
- GATGGGAA — higher, -0.0718
- AGGTTAAG — higher, 0.383
- CGCCCCGA — higher, 0.0459
- GCACAAAC — lower, -0.124
- CCTGAAGG — higher, 0.25
- CCCCAACA — lower, -0.0862
- CGGCCTAA — higher, 0.0382
- CGGTAACG — higher, 0.0507
- GGCGAGCC — lower, -0.208
- AGATGAAA — higher, -0.0457
- CTAGCGAA — lower, -0.221
- CATCGATC — lower, -0.115
- CAGACGCA — higher, -0.0635
- ACAAAATA — higher, 0.212
- CGTGTAGC — lower, -0.153
- CCGAACAG — higher, -0.0301
- ACTCTAAC — higher, 0.0768
- GATGAATC — higher, -0.027
- AGCCGCCC — lower, -0.119
- CTATACTC — lower, -0.287
- CTCGCGGC — lower, -0.0998
- AATTCTTG — higher, -0.0794
- AGTCGCAC — lower, -0.107
- AGTGAGTG — lower, -0.161
- CGATTCCC — lower, -0.0888
- AACGACGC — higher, -0.0288
- ATCCCTTC — lower, -0.157
- ACTCTCCA — lower, -0.134
- CGCCCAAA — higher, 0.0103
- CAACCCGC — higher, 0.251
- GCCAGTGA — lower, -0.209
- CGCTGAAC — higher, 0.0666
- ACAATATG — higher, 0.102
- CCATAAAA — higher, 0.12
- ACATCACC — higher, -0.0522
- AACGCCTG — lower, -0.194
- CACTTACG — higher, 0.0119
- AATATATT — higher, 0.269
- CTTGAACC — higher, -0.0192
- TCACAGAA — higher, -0.00307
- GACAGCCA — lower, -0.146
- CTTTGTGA — higher, 0.0154
- CCTTCTCA — higher, -0.053
- CGGAAGTC — lower, -0.19
- AGCTTTGA — higher, 0.102
- AAAGAGTA — higher, -0.00021
- ACCCGGCC — higher, -0.0273
- CCTGAAAG — higher, 0.156
- AGGCAACG — lower, -0.316
- GATTGGTA — higher, -0.0727
- GACCCCTC — higher, 0.138
- GACCACAC — higher, 0.0441
- GCGCGCGC — higher, 0.263
- GGCCCTAC — higher, 0.0088
